Consider 56 compounds from ChEMBL document CHEMBL4888484, “Replenishing the malaria drug discovery pipeline: Screening and hit evaluation of the MMV Hit Generation Library 1 (HGL1) against asexual blood stage Plasmodium falciparum ,using a nano luciferase reporter read-out” (2022).

Screen size: about 150,000 compounds; about 540 (0.36%) showed an effect of 50% or more. This is one part of the list.

The assay concerns Plasmodium falciparum. Briefly: Primary screen in NF54 nanoGlo assay, in single point, at 2uM, 72h; a lower Z score goes with more inhibition. It counts as functional, Erythrocyte. The note with it: timepoint 72 hour.
Turning to `Cn1c(CCc2ccccc2NS(=O)(=O)c2ccc3c(c2)CCCC3)nc2ccccc21`, the % Inhibition – broadly, the relative decrease from the control value, in per cent – is given as -1% and the Z score was determined as 0.12.
Taken in the same sequence, the figures for `Cc1nc(CC(=O)N2C[C@@H]3c4ccccc4OC[C@]3(CO)C2)cs1` were -16% and 1.45.
Consider `Oc1ccc(Br)cc1CNc1nc2ccccc2[nH]1`, for which the “% Inhibition” value is recorded as 23% and the Z score was -2.89.
Taken in the same sequence, the figures for `O=C(CCc1ccc2c(c1)CN(S(=O)(=O)c1ccc3c(c1)CCC3)CCO2)N1CCCC1` were 5% and -0.59.
Regarding `O=C1NCCC[C@@H]1NS(=O)(=O)c1ccc(OCC2CCCCC2)cc1`, the “% Inhibition” value is reported as -9% and the Z score is listed as 1.35.
The like results for `COc1cc(C(=O)N2CCC[C@@]3(CCCc4ccccc43)C2)ncn1` were, in that order, 8% and -1.07.
Turning to `Cc1nc(C(=O)N2CC[C@H](Oc3ccncn3)C2)cs1`, the “% Inhibition” value is -7% and the Z score was found to be 1.09.
Taken in the same sequence, the figures for `FC1(F)CCN(Cc2nc(-c3ccccc3)cs2)CC1` were 5% and -0.99.
`COCC1(c2noc(-c3oc(CC4CC4)nc3C)n2)CCOCC1`: the “% Inhibition” value was -11% and the Z score is on record as 1.48.
With `CN(C)C(=O)O[C@H]1CCN(C(=O)Cc2ccn(-c3ccccc3)n2)C1`, the “% Inhibition” value is listed as -5% and the Z score is on record as 0.8.
`COc1cc2c(-c3ccccc3)c(C)oc2cc1CN1CCN(CCO)CC1`: the “% Inhibition” value is 0% and the Z score is recorded as -0.01.
The like results for `O=C(c1ccc2cccc(F)c2n1)N1CCC(O)(Cn2ccnc2)CC1` were, in that order, 24% and -3.21.
In the case of `C=CCN(Cc1cccc(OCC)c1)C(=O)C[C@H]1CNCCO1`, the “% Inhibition” value is -3% and the Z score stood at 0.45.
Take `CCOc1cc(N)c(C(=O)O)cc1OCC`: the “% Inhibition” value was -3% and the Z score is 0.55.
With `Cc1nc(CNC(=O)Cc2c3c(n(Cc4ccccc4)c2C)CCCC3=O)no1`, the “% Inhibition” value is recorded as -17% and the Z score came out at 1.62.
Regarding `CC(=O)Nc1nc(C(=O)N2CC=C(c3ccnn3C)CC2)cs1`, the “% Inhibition” value is on record as -5% and the Z score is on record as 0.98.
For `Cc1cc(C(=O)NCC(=O)NCc2ccncc2)c(C)o1`, the “% Inhibition” value is 0% and the Z score was -0.07.
Regarding `O=S(=O)(c1ccccc1)N1CCCN(C[C@H]2CCC=CO2)CC1`, the “% Inhibition” value is -9% and the Z score stood at 0.88.
The like results for `CCC(C)(C)OC(=O)c1cccc(C(=O)NC)c1` were, in that order, -14% and 1.64.
For `O=C(NCc1cc(=O)cc[nH]1)C1CCC2CCCCC2C1` (configuration not stated), the “% Inhibition” value was 11% and the Z score is -1.39.
Turning to `O=C(c1nc2ccc(Cl)cn2c1CN1CCC[C@H](O)C1)N1CCCCCCC1`, the “% Inhibition” value is recorded as -20% and the Z score was found to be 2.18.
As for `CC(C)c1csc(CN2CCC(CCC(=O)Nc3ccccc3Cl)CC2)n1`, the “% Inhibition” value came out at 1% and the Z score is recorded as -0.11.
`CCN(CC1CCN(c2ccccn2)CC1)C(=O)c1cnn(C)c1C`: the “% Inhibition” value was -15% and the Z score came out at 1.28.
In the case of `CCC[C@@H](CC(=O)O)NC(=O)c1cc(C)cc(F)c1`, the “% Inhibition” value is -3% and the Z score worked out at 0.31.
The like results for `Cc1nnc(N2CCCc3ccccc32)[nH]c1=O` were, in that order, -13% and 1.67.
As to `COc1ccc(CC(=O)N2CCN(c3nc(CCC(C)C)nc4c3cnn4-c3cccc(Cl)c3)CC2)cc1`, the “% Inhibition” value is -6% and the Z score amounted to 0.58.
Consider `CCn1c(=O)c(C(=O)NCc2ccc(N3CCCC3)cc2)nc2cccnc21`, for which the “% Inhibition” value is on record as -6% and the Z score stood at 1.03.
`O=C(NCc1cccnc1N1CCOCC1)c1ncoc1C1CC1`: the “% Inhibition” value is on record as -16% and the Z score is 2.15.
Taken in the same sequence, the figures for `Cc1nc(NC(=O)N[C@H]2CCCC[C@@H]2c2ccccc2)nn1C` were 2% and -0.24.
For `CC1CC1c1cc(NC(=O)Nc2cnc3c(Br)cccn23)[nH]n1` (configuration not stated), the “% Inhibition” value is -3% and the Z score is recorded as 0.34.
The like results for `COC(=O)c1ccc2c(c1)n(Cc1nncn1C(C)C)c(=O)n2CC1CC1` were, in that order, -8% and 1.62.
Taken in the same sequence, the figures for `CCC(=O)N1CCN(C(=O)c2oc(Br)cc2C)C1` were -9% and 1.25.
For the compound `CCc1ccccc1NC(=O)N1CCC(c2nnc(C(=O)Nc3ccc(OC)cc3)s2)CC1`, the “% Inhibition” value is recorded as -20% and the Z score is 1.83.
For the compound `Cc1c(F)cc(C(=O)NCC(F)(F)F)cc1NCc1cscn1`, the “% Inhibition” value amounted to 2% and the Z score is recorded as -0.35.
Turning to `CCN(CC)[C@@H](CNC(=O)Cc1csc(C(C)C)n1)c1ccco1`, the “% Inhibition” value turned out to be 5% and the Z score was -0.41.
With `CC[C@]1(CO)CCCN(c2cncc(N(C)C)n2)C1`, the “% Inhibition” value turned out to be 6% and the Z score is -0.81.
Take `C[C@H]1CCN(Cc2cncs2)CCS1(=O)=O`: the “% Inhibition” value was -19% and the Z score is reported as 1.92.
Regarding `c1ccc(Cc2cn[nH]c2[C@H]2CCCNC2)cc1`, the “% Inhibition” value came to 4% and the Z score is on record as -0.49.
With `Cc1cccc(NC(=O)CN(C)CCC[C@H](C)O)c1C`, the “% Inhibition” value is -3% and the Z score was 0.4.
Taken in the same sequence, the figures for `O=C(NCCc1c[nH]cn1)Nc1ccnn1C[C@@H]1CC=CCC1` were 5% and -0.93.
Consider `CCC(C)NC(=O)CCNC(C)c1cc(F)c(F)c(F)c1` (configuration not stated), for which the “% Inhibition” value is 1% and the Z score was -0.11.
Consider `CCOC(=O)c1ccc(NS(=O)(=O)C[C@H](OC)C2CC2)c(O)c1`, for which the “% Inhibition” value was -9% and the Z score came to 0.78.
In the case of `O=C(NC1CCC(F)(F)CC1)C1CCC1`, the “% Inhibition” value is -18% and the Z score was 2.3.
Turning to `Cc1cc(-c2c(-c3ccccc3)ncn2CCNc2ccccc2)[nH]n1`, the “% Inhibition” value is on record as 16% and the Z score was -2.12.
On to `CS(=O)(=O)NC1CC1C1CCCCC1` (configuration not stated), for which the “% Inhibition” value is on record as -6% and the Z score was determined as 0.84.
As to `O=C(CCCc1ccccc1)N1CCC(F)(C(=O)N2CCOCC2)CC1`, the “% Inhibition” value is -6% and the Z score came to 0.84.
`Cc1ccccc1C(=O)N1[C@H](C(=O)NCc2cccnc2)COC12CCN(C(=O)c1ccccc1F)CC2`: the “% Inhibition” value was -7% and the Z score was determined as 1.1.
With `COc1cc(C)ccc1-c1nc([C@H]2CCOC2)no1`, the “% Inhibition” value was determined as 3% and the Z score is -0.38.
The like results for `C#C[C@H](CO)NCc1ccc(Cl)s1` were, in that order, 11% and -1.38.
For the compound `Cc1ncc(C(=O)O)cc1NC(=O)CC(C)(C)C`, the “% Inhibition” value turned out to be 4% and the Z score is on record as -0.5.
As for `CN(Cc1nc2ccccc2s1)C(=O)c1cc(S(=O)(=O)N2CCCCC2)ccc1N1CCCC1`, the “% Inhibition” value amounted to 0% and the Z score is -0.02.
With `Cc1cnc(C2CCC2)n1C[C@H]1CCN(S(=O)(=O)c2cccc(F)c2)C1`, the “% Inhibition” value is reported as -9% and the Z score came to 1.23.
For the compound `O=C(NCCn1ccnc1)Nc1ccc(Cl)cc1C(F)(F)F`, the “% Inhibition” value is -4% and the Z score is given as 0.57.
On to `Cc1nsc(C(=O)NCc2ccccc2Cl)n1`, for which the “% Inhibition” value is recorded as -6% and the Z score is 0.89.
As for `c1cncc(-c2noc(CN3CCC(c4cc[nH]n4)CC3)n2)c1`, the “% Inhibition” value was -14% and the Z score stood at 1.53.
Consider `CC(=O)N1CCCN(C[C@@H]2OC[C@H](NC(=O)c3ccc(Cl)cc3)[C@H]2O)CC1`, for which the “% Inhibition” value is on record as 25% and the Z score is given as -2.87.
